{
  "source": "PubChem BioAssay AID588342",
  "about": "(National Center for Advancing Translational Sciences (NCATS), 2011)",
  "note": "Hit rate of the full screen: of about 360,000 compounds, about 25,000 (6.9%) were called active. Inconclusive results, whose numbers are uncertain, are shown with a selection of clear calls. The call rests on the fitted dose curve; in most records, active means well fitted inhibition curve with a large enough effect; inconclusive means small, poorly fitted or top-dose-only effect; inactive means flat fitted curve, though single readings scatter. Potencies of inconclusive entries are doubtful fits and often do not repeat. Potency means the concentration at half of the fitted maximal effect; tags describe the fitted curve by direction and shape.",
  "data": [
    {"target": "Luciferin 4-monooxygenase (Photinus pyralis) (UniProt P08659)", "sequence (P08659 whole entry, looked up)": "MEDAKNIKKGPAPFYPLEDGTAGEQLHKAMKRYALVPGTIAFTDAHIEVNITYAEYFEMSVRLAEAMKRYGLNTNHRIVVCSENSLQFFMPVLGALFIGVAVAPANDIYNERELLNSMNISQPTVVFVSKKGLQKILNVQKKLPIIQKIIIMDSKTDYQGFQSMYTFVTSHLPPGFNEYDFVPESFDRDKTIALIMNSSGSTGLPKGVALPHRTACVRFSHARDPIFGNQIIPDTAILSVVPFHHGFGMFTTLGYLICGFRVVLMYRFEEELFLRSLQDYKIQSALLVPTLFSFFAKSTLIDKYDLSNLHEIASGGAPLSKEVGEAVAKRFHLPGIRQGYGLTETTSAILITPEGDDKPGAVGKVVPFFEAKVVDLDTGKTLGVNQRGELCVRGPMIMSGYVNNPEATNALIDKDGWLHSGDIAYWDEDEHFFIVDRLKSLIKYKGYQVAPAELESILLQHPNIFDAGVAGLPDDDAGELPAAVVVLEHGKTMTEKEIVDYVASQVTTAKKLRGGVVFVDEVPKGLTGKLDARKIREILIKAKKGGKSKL", "test": "qHTS profiling assay for firefly luciferase inhibitor/activator using purifed enzyme and Km concentrations of substrates (counterscreen for miR-21 project); further: nearly all actives have a fitted effect of over 55% in size", "details": "purified FLuc, luminescence inhibition; series mostly up to 57.5 µM", "how_it_was_run": "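Purified P. pyralis luciferase (10nM final) with 10uM D-luciferin and 10uM ATP (Km levels) in 50mM Tris acetate pH 7.5, 10mM Mg acetate, 0.01% Tween-20, 0.05% BSA; qHTS 6-point titration, ~60 µM downward; luminescence read.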", "values": [
      {"smiles": "COc1ccc([C@H]2[C@H](C(=O)C(C)(C)C)N3N=Cc4ccccc4C3[C@]23N=C(c2ccccc2)OC3=O)cc1", "note": "(stereo not given in full)", "Potency": "inconclusive: 21.3 µM [inhibitor, partial curve]"},
      {"smiles": "C(=N\\N1CCN(c2ccccn2)CC1)/c1ccco1", "Potency": "inconclusive: 21.3 µM [inhibitor, partial curve, poor fit]"},
      {"smiles": "COc1cccc(Cn2cccc(NC(=O)Nc3ccc(C#N)cc3)c2=O)c1", "Potency": "inconclusive: 26.9 µM [inhibitor, single point]"},
      {"smiles": "COc1cc(OC)c(NC(=O)c2ccccc2F)cc1Cl", "Potency": "inconclusive: 30.1 µM [inhibitor, single point]"},
      {"smiles": "CC(C)[C@H](NC(=O)OCc1ccccc1)C(=O)OCC(=O)N1CCN(c2ccccc2)CC1", "Potency": "inconclusive: 37.9 µM [inhibitor, partial curve, poor fit]"},
      {"smiles": "O=C(O)c1ccc(/C=N/N2CCN(Cc3cccc4ccccc34)CC2)cc1", "Potency": "inconclusive: 30.1 µM [inhibitor, partial curve, poor fit]"},
      {"smiles": "O=S(=O)(c1ccc(-c2cn3ccccc3n2)cc1)N1CCOCC1", "Potency": "inconclusive: 30.1 µM [inhibitor, single point]"},
      {"smiles": "CCc1nc(Nc2ccc3nccnc3c2)c2oc3ccccc3c2n1", "Potency": "inconclusive: 4.78 µM [inhibitor, partial curve, poor fit]"},
      {"smiles": "CCOc1cc(S(=O)(=O)NCCCN2CCOCC2)c(C)cc1C", "Potency": "inactive"},
      {"smiles": "CCOC(=O)c1ccc(NC(=O)N2CCN(C3CCCCC3)CC2)cc1", "Potency": "inactive"},
      {"smiles": "O=C(NC(=S)NCCO)c1sc2ccccc2c1Cl", "Potency": "active: 6.01 µM"},
      {"smiles": "O=C(O)c1cc(-c2cccnc2)nc2ccc(Br)cc12", "Potency": "inconclusive: 23.9 µM [inhibitor, single point]"},
      {"smiles": "OCCn1c(-c2ccccc2)csc1=Nc1ccccc1", "Potency": "inconclusive: 21.3 µM [inhibitor, partial curve]"},
      {"smiles": "CC(C)CN(C(=O)CSc1nc(-c2ccccc2)cn1N)c1c(N)n(Cc2ccccc2)c(=O)[nH]c1=O", "Potency": "inconclusive: 37.9 µM [inhibitor, single point]"},
      {"smiles": "Cc1ccc(C(=O)Cn2nc(C(=O)O)c3ccccc3c2=O)cc1C", "Potency": "active: 6.75 µM"},
      {"smiles": "COc1ccc2o/c(=N/NC(=O)c3cccs3)c(C(N)=O)cc2c1", "Potency": "inconclusive: 30.1 µM [inhibitor, single point]"},
      {"smiles": "O=C(COc1ccccc1)NCCSCc1ccccc1Cl", "Potency": "active: 26.9 µM"},
      {"smiles": "Cc1cc(C)cc(OCCCn2c(CCNC(=O)C3CCCCC3)nc3ccccc32)c1", "Potency": "inconclusive: 26.9 µM [inhibitor, partial curve, poor fit]"},
      {"smiles": "Cc1nc2ccc(S(=O)(=O)NCC(=O)N3CCN(c4ccccc4)CC3)cc2s1", "Potency": "inactive"},
      {"smiles": "COc1ccc(C2=NN(C(=O)CN3CCCCC3)C(c3ccc(C)cc3)C2)cc1", "note": "(stereo not given)", "Potency": "inactive"},
      {"smiles": "CCOC(=O)N1CCC(NC(=O)C2CCN(C(=O)N3CCOc4ccccc43)CC2)CC1", "Potency": "inactive"},
      {"smiles": "CC1=NN(C(N)=S)C(=O)C1N=Nc1ccc(Cl)cc1Cl", "note": "(stereo not given)", "Potency": "active: 23.9 µM"},
      {"smiles": "C/C(=N\\NC(=O)CNC(=O)C1COc2ccccc2O1)c1ccc(Cl)cc1", "note": "(stereo not given)", "Potency": "inactive"},
      {"smiles": "Cc1cccc(/C=N/NC(=O)c2cc(Br)ccc2OCc2ccccc2)n1", "Potency": "inactive"},
      {"smiles": "O=C(Nc1ccc2c(c1)OCCO2)c1ccc(S(=O)(=O)N2CCCCC2)cc1", "Potency": "inconclusive: 19 µM [inhibitor, partial curve]"},
      {"smiles": "Cc1ccc(C2=N/C(=C/c3cccs3)C(=O)N2Nc2ccccc2)cc1", "Potency": "inconclusive: 16.9 µM [inhibitor, partial curve, poor fit]"},
      {"smiles": "Cc1cc(C)c(S(=O)(=O)c2ccccc2F)c(=O)[nH]1", "Potency": "inactive"},
      {"smiles": "O=C(N/N=C/c1ccc([N+](=O)[O-])o1)c1ccc2c(c1)OCO2", "Potency": "inconclusive: 16.9 µM [inhibitor, partial curve]"},
      {"smiles": "O=C1OCCC1Sc1nnc(-c2ccccc2)o1", "note": "(stereo not given)", "Potency": "inconclusive: 15.1 µM [inhibitor, partial curve]"},
      {"smiles": "O=C(Nc1cc(N2CCCCC2)ncn1)c1ccc(F)cc1", "Potency": "inconclusive: 26.9 µM [inhibitor, single point]"},
      {"smiles": "Cn1c(NCc2cc(Br)ccc2O)nc2ccccc21", "Potency": "inconclusive: 13.5 µM [inhibitor, partial curve]"},
      {"smiles": "COc1cc(OC)c(NC(=O)NCc2ccc3c(c2)CCN3C(=O)c2ccccc2)cc1Cl", "Potency": "inconclusive: 10.7 µM [inhibitor, partial curve, poor fit]"},
      {"smiles": "O=C(NCCc1ccccc1)c1cccnc1", "Potency": "inconclusive: 26.9 µM [inhibitor, single point]"},
      {"smiles": "Cc1cc2nc(C3CCCN(C(=S)Nc4ccccc4)C3)[nH]c2cc1C", "note": "(stereo not given)", "Potency": "inconclusive: 1.69 µM [inhibitor, full curve]"},
      {"smiles": "Cc1nc([N+](=O)[O-])c(C(=O)OCc2ccc(C#N)cc2)n1C", "Potency": "inactive"},
      {"smiles": "Cc1ccc(Cn2ccsc2=NC(=O)COC(=O)c2ccc(O)cc2O)cc1", "Potency": "inconclusive: 26.9 µM [inhibitor, single point]"},
      {"smiles": "CC(=O)Cc1nsc(NC(=O)c2ccc(-c3ccc(Cl)cc3Cl)o2)n1", "Potency": "active: 6.75 µM"},
      {"smiles": "CC(C)CC(NS(=O)(=O)c1ccc2c(c1)oc(=O)n2C)C(=O)NCCc1ccc(Cl)cc1", "note": "(stereo not given)", "Potency": "inactive"},
      {"smiles": "O=C(CSc1cn(CCNC(=O)c2c(F)cccc2F)c2ccccc12)Nc1ccc2c(c1)OCCO2", "Potency": "inconclusive: 10.7 µM [inhibitor, partial curve]"},
      {"smiles": "O=C(CSc1ccccc1)Nc1ccc2sccc2c1", "Potency": "inconclusive: 23.9 µM [inhibitor, single point]"},
      {"smiles": "CCC1CCCCN1C(=O)COC(=O)CN(C)S(=O)(=O)c1ccc(NC(C)=O)cc1", "note": "(stereo not given)", "Potency": "inactive"},
      {"smiles": "Cc1ccc(NC(=O)c2oc3ccccc3c2NC(=O)c2cc3ccccc3o2)cc1", "Potency": "inconclusive: 7.57 µM [inhibitor, partial curve, poor fit]"},
      {"smiles": "CCOc1ccccc1NC(=O)Cn1cnc2onc(-c3ccc(F)cc3)c2c1=O", "Potency": "inactive"},
      {"smiles": "COC(=O)C1=CN(c2cccc(C)c2)C=C(C(=O)OC)C1c1cc(OC)c(O)c([N+](=O)[O-])c1", "Potency": "active: 16.9 µM"},
      {"smiles": "Cc1cc(C)cc(NS(=O)(=O)c2ccc3[nH]cc(C(=O)N4CCCC4)c(=O)c3c2)c1", "Potency": "inconclusive: 10.7 µM [inhibitor, partial curve, poor fit]"},
      {"smiles": "O=C(O)c1cc(-c2cccs2)nn1-c1ccc(F)cc1", "Potency": "inconclusive: 26.9 µM [inhibitor, partial curve, poor fit]"},
      {"smiles": "CCCSc1nnc(NC(=O)CSc2sc3c(O)cc(=O)[nH]c3c2C#N)s1", "Potency": "inconclusive: 26.9 µM [inhibitor, partial curve, poor fit]"},
      {"smiles": "Cc1ccc(C(=O)N/N=C/c2ccc3c(c2)OCO3)o1", "Potency": "active: 6.01 µM"},
      {"smiles": "COc1ccc(C(=O)Nn2cnnc2)cc1OC", "Potency": "inactive"},
      {"smiles": "NC(=O)C1CCN(c2nc(-c3ccc4occc(=O)c4c3)cs2)CC1", "Potency": "inconclusive: 23.9 µM [inhibitor, single point]"},
      {"smiles": "Cc1cc(C(=O)COC(=O)c2csc3c2CCCC3)c(C)n1C", "Potency": "active: 12 µM"},
      {"smiles": "CN(CCCN1CCOCC1)C(=O)c1ccc2nc(Cc3cccc(Cl)c3)oc2c1", "Potency": "inactive"},
      {"smiles": "Cc1ccc(-c2csc(NC(=O)c3ccc(C)o3)n2)cc1", "Potency": "inconclusive: 26.9 µM [inhibitor, single point]"},
      {"smiles": "COc1cccc(C(=O)Nc2cc(-c3ccccc3)no2)c1", "Potency": "active: 1.2 µM"},
      {"smiles": "COc1ccc(/C=C/c2nc(C#N)c(NCCc3ccc(OC)c(OC)c3)o2)cc1OC", "Potency": "inconclusive: 30.1 µM [inhibitor, partial curve, poor fit]"},
      {"smiles": "COc1ccc(-c2ccc(CNCc3ccccn3)o2)cc1Cl", "Potency": "inconclusive: 37.9 µM [inhibitor, partial curve, poor fit]"},
      {"smiles": "c1ccc2[nH]c(CSc3ncnc4c3oc3ccccc34)nc2c1", "Potency": "inconclusive: 26.9 µM [inhibitor, single point]"},
      {"smiles": "Cc1cccc(-n2cnc(C(=O)NNC(=S)Nc3ccc(Cl)cc3)c2)n1", "Potency": "inconclusive: 26.9 µM [inhibitor, single point]"},
      {"smiles": "COC(=O)c1sc(NC(=O)COc2cccc(C)c2)nc1C", "Potency": "inconclusive: 16.9 µM [inhibitor, partial curve]"},
      {"smiles": "CC(C)C(NC(=O)C1CCCCC1)C(=O)Nc1ccncc1", "note": "(stereo not given)", "Potency": "inactive"},
      {"smiles": "CCOC(=O)c1cc(C)n(CC2CCC(C(=O)Nc3ccc(Cl)cc3)CC2)c1C", "note": "(stereo not given)", "Potency": "inactive"},
      {"smiles": "O=C(c1ccco1)N1CCN(Cc2ccccc2Br)CC1", "Potency": "inconclusive: 23.9 µM [inhibitor, single point]"},
      {"smiles": "O=C(Nc1ccc(CN2CCOCC2)cc1)c1cc2ccccc2o1", "Potency": "active: 3.79 µM"},
      {"smiles": "O=[N+]([O-])c1ccc(F)cc1OCc1nc(-c2cccs2)no1", "Potency": "active: 9.53 µM"},
      {"smiles": "O=S(=O)(Cc1cc(-c2ccc(Cl)cc2)no1)c1ccccc1", "Potency": "inconclusive: 4.26 µM [inhibitor, full curve]"},
      {"smiles": "CCOC(=O)/C(=N\\Nc1ccc(OC)cc1)c1csc(Nc2ccccc2)n1", "Potency": "active: 9.53 µM"},
      {"smiles": "COc1cc(NS(=O)(=O)c2ccc(NC(=O)c3ccccc3C(=O)O)cc2)nc(OC)n1", "Potency": "inconclusive: 30.1 µM [inhibitor, partial curve, poor fit]"},
      {"smiles": "Nc1ccccc1SC(C[N+](=O)[O-])c1ccccc1", "note": "(stereo not given)", "Potency": "active: 10.7 µM"},
      {"smiles": "O=C(O)C1=C[C@H](c2ccc(Br)cc2)C[C@H](OCc2ccc(CO)cc2)O1", "Potency": "inconclusive: 42.6 µM [inhibitor, partial curve, poor fit]"},
      {"smiles": "Cc1ccc(C2=C(c3ccc([N+](=O)[O-])cc3)C(=O)OC2)cc1C", "Potency": "inconclusive: 37.9 µM [inhibitor, partial curve, poor fit]"}
    ]}
  ]
}
